These results are taken from patent US20230117205A1 (Seagen, published 2023).

The target in experiment [1] is T1, recombinant human B7-H4 protein (B7-H4 extracellular domain Phe29-Ala258 with a C-terminal 10-His tag) (human, UniProt Q7Z7D3 29-258, NHS-biotinylated in the bivalent BLI format only).
T1 construct: also called hB7-H4; hB7-H4 His antigen; not shown: C-terminal 10-His tag
T1 sequence: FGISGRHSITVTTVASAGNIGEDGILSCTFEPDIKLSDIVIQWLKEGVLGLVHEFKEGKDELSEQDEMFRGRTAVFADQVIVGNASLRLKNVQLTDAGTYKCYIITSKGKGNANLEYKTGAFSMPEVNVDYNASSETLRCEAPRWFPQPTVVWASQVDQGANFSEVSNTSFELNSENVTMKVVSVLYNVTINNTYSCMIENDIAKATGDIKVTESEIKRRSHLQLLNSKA
Kind of experiment: BLI (Octet HTX), bivalent format (biotinylated hB7-H4 His on streptavidin biosensors, 37 C) against monovalent format (antibody on anti-human Fc biosensors, 30 C).

The target in experiment [2] is T2, human B7-H4 on cells (human, UniProt Q7Z7D3 25-282).
T2 construct: no signal peptide limits are stated; also called hB7-H4; B7-H4-expressing SKBR3 cells
T2 sequence: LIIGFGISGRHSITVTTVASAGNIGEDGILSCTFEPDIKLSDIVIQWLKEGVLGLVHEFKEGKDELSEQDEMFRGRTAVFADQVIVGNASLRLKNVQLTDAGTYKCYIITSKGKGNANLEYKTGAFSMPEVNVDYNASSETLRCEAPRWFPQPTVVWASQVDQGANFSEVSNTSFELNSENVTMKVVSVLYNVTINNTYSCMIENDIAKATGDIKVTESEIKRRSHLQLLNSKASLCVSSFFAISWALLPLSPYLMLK
Kind of experiment: flow cytometry saturation binding on SKBR3 cells, right panel.

Experiment [3] concerns the target T2, human B7-H4 on cells. Nature of the experiment: flow cytometry saturation binding on SKBR3 cells, left panel.
Experiment [4] has as its target T1, recombinant human B7-H4 protein (B7-H4 …). Kind of experiment: BLI (Octet HTX), bivalent format: NHS-biotinylated hB7-H4 His antigen on streptavidin (SAX) biosensors, mAb in solution, 37 C, 1:1 fit.
For experiment [5] the target is unchanged. Kind of experiment: BLI (Octet HTX), monovalent format: mAb captured on anti-human Fc (AHC) biosensors, hB7-H4 His antigen in solution, 30 C, 1:1 fit.
Experiment [6] deals with T3, hscFcRN (biotinylated avi-tagged, fused with monomeric Fc) (human, UniProt P55899 fragment; P61769 fragment, limits assumed, biotin on avi tag).
T3 construct: Designed and expressed at Seagen; also called hscFcRN hmFc IHH A avi Biotin; hFcRN
Kind of experiment: BLI (Octet HTX), biotinylated hscFcRN on streptavidin biosensors, antibody in solution, pH 6.0, 30 C, 1:1 fit.

Experiment [7] deals with T1, recombinant human B7-H4 protein (B7-H4 …). Nature of the experiment: BLI (Octet HTX), bivalent format: NHS-biotinylated hB7-H4 His antigen on streptavidin (SAX) biosensors, ADC in solution, 37 C, 1:1 fit.
Experiment [8] addresses T3, hscFcRN (biotinylated avi-tagged, fused …). Kind of experiment: BLI (Octet HTX), biotinylated hscFcRN on streptavidin biosensors, ADC in solution, pH 6.0, 30 C, 1:1 fit.
Experiment [9] has as its target T1, recombinant human B7-H4 protein (B7-H4 …). Nature of the experiment: BLI (Octet HTX), bivalent format (biotinylated hB7-H4 His on streptavidin biosensors, 37 C) against monovalent format (ADC on anti-human Fc biosensors, 30 C).
Experiment [10] has the same target. Kind of experiment: BLI (Octet HTX), monovalent format: ADC captured on anti-human Fc (AHC) biosensors, hB7-H4 His antigen in solution, 30 C, 1:1 fit.

T3 sequence (P55899 24-297 limits assumed, form in doubt, chain 1 of 2): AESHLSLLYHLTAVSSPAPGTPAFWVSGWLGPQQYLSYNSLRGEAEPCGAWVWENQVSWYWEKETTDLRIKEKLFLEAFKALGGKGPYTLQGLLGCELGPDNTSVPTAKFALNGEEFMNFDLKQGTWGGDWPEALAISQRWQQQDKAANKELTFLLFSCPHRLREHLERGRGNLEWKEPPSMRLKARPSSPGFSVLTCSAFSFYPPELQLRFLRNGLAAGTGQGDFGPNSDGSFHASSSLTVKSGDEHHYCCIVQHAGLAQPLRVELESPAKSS
T3 sequence (P61769 21-119 limits assumed, form in doubt, chain 2 of 2, further chain): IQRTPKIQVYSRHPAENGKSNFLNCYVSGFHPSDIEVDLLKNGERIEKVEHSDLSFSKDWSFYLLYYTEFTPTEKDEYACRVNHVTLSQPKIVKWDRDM

B1: B7H41001 mAb (antibody, human IgG1, kappa)
heavy: QLQLQESGPGLVKPSETLSLTCTVSGGSIKSGSYYWGWIRQPPGKGLEWIGNIYYSGSTYYNPSLRSRVTISVDTSKNQFSLKLSSVTAADTAVYYCAREGSYPNQFDPWGQGTLVTVSS[human IgG1 constant region not listed]
light: EIVMTQSPATLSVSPGERATLSCRASQSVSSNLAWYQQKPGQAPRLLIYGASTRATGIPARFSGSGSGTEFTLTISSLQSEDFAVYYCQQYHSFPFTFGGGTKVEIKRTVAAPSVFIFPPSDEQLKSGTASVVCLLNNFYPREAKVQWKVDNALQSGNSQESVTEQDSKDSTYSLSSTLTLSKADYEKHKVYACEVTHQGLSSPVTKSFNRGEC
modifications: most abundant form: C-terminal lysine removed, N-terminal glutamine cyclized to pyroglutamic acid, Asn300 occupied by biantennary core fucosylated glycans
notes: Fully human, fucosylated anti-B7-H4 IgG1 kappa; two heavy chains (450 residues) and two light chains (214 residues); also called unconjugated mAb B7H41001; unconjugated antibody
In the case of B1, the “fold enhancement of affinity, bivalent format compared to monovalent format” value in [1] was 231 fold. For the same molecule, the “EC50 (read off the curve)” value with human B7-H4 on cells [2] and in the experiment with human B7-H4 on cells [3] was roughly 3 nM each time. Also, the Kd in experiment [4] was 0.026 nM; in experiment [5] it was 6.1 nM; in experiment [6] it was 17.5 nM.

B2: SGN-B7H4V (antibody, human IgG1, kappa)
heavy: B1 heavy
light: B1 light
modifications: vcMMAE may be attached through cysteine sulfur; positions not given; vcMMAE (MC-Val-Cit-PABC-MMAE, vedotin) attached through cysteine sulfur; positions not given
notes: also called ADC; B7-H4-ADC
As to B2, the figures for the Kd in experiment [7], in experiment [8] and in experiment [10] were 0.022 nM, 15.6 nM and 8.7 nM, respectively. Moreover, the half-maximal effective concentration (EC50 (read off the curve)) with human B7-H4 on cells [2] was roughly 1 nM; with human B7-H4 on cells [3] it was roughly 2 nM. The “fold enhancement of affinity, bivalent format compared to monovalent format” value in [9] turned out to be 395 fold.
